The values that follow come from PubChem BioAssay AID1346428 (National Center for Advancing Translational Sciences (NCATS), 2018).

Each structure is given as a SMILES string. Values joined by “and” are separate entries in the source; they are usually repeats but may differ in a detail not shown here. Identical values can stand only once. About 1,200 (2.5%) of roughly 48,000 compounds were called active. Another 2% or so got no clear call; they are omitted.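 The calls were made as follows: active = activation of at least 60% and not above a set upper limit (about 1 call in 100 departs from these limits); inconclusive = activation of 40% to 60%, or above that upper limit; inactive = activation under 40%.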 The list shows a part of the results. Where a structure was tested more than once in an assay, its records may differ in their call.

The experiment addresses Probable G-protein coupled receptor 32 (Homo sapiens) (UniProt O75388). The experiment is described as follows: qHTS for Agonists of Human Resolvin D1 Receptor DRV1. To be noted: CHO-K1 GPR32 beta-arrestin PathHunter luminescence, 90 min; at 76.9 µM; stronger effect = higher value; zero percent set by DMSO-only wells. The method in brief: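 Using DMSO wells as EC0, agonist-induced signal was taken as chemiluminescence from beta-Gal reconstituted upon beta-arrestin recruitment to GPR32 in CHO-K1 cells after 90 min compound treatment.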
UniProt O75388, sequence (O75388 whole entry, looked up): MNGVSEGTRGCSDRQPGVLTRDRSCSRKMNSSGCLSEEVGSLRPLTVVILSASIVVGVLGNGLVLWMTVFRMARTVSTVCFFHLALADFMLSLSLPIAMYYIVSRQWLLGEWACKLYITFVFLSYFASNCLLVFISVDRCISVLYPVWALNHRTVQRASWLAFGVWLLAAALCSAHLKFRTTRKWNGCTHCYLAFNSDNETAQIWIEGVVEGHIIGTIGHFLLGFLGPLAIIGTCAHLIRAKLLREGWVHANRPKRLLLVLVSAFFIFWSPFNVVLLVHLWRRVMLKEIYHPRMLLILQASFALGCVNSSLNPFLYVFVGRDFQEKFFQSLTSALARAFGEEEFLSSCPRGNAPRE
As for `CCOc1ccccc1NC(=O)CSc1nc(-c2cccs2)cc(C(F)(F)F)n1`, the activation was inactive: 20.2%.

`COc1ccc(Cl)cc1NC(=O)c1c(NCc2cccs2)sc2c1CCC(C)C2` (centres undefined): the activation was inactive: 4.27%.

With `CC(C)c1ccc(NC(=O)CSC2=Nc3ccccc3C3=NC(CC(=O)NCCc4ccccc4)C(=O)N23)cc1` (centres undefined), the activation is inactive: -13.2%.

Turning to `Cc1[nH]c2ccccc2c1SCCNC(=O)c1ccc(F)cc1`, the activation is inactive: -11.5%.

Take `Cn1cc(-c2cc3n(n2)CCC(=O)N3CC(=O)NCc2ccccc2)c2ccccc21`: the activation is inactive: -17.5%.

Regarding `COc1ccc(N(C(=O)c2cc(OC)c(OC)c(OC)c2)S(=O)(=O)c2ccc(C)cc2)cc1`, the activation is inactive: -3.45%.

As to `Cc1cccc(Cn2c(SCc3ccc(C(=O)NCc4cccs4)cc3)nc3ccncc32)c1`, the activation is inactive: 1.33%.

Regarding `Cc1ccccc1C(=O)Nc1ccc2nc(SCC(=O)N(C)c3ccccc3)sc2c1`, the activation was inactive: -1.1%.

`CN(C)C1(CNC(=O)COc2cccc(Cl)c2)CCCCC1`: the activation was inactive: -5.13%.

As to `O=c1cc(N2CCN(c3ccc(F)cc3)CC2)[nH]c(=O)n1-c1cccc(Br)c1`, the activation was inactive: -0.0223%.

For the compound `CC(C)c1ccc(Cc2cnc(NC(=O)c3ccc4c(c3)CC(c3ccccc3)OC4=O)s2)cc1` (centres undefined), the activation was inactive: 30.5%.

Turning to `Cc1cccc(C(=O)NCc2cn3cccc(C)c3n2)c1`, the activation is inactive: 3.09%.

On to `Cc1ccnc(NC(c2cc(C)ccc2O)c2ccc3cccnc3c2O)c1` (centres undefined), for which the activation was inactive: -10.9%.

As for `COc1ccc(-c2cn3c(n2)sc2cc(C(=O)NC4CCCCC4)ccc23)cc1`, the activation is inactive: -2.61%.

In the case of `Cc1ccc(CNC(=O)C2CCN(S(=O)(=O)c3c(C)noc3/C=C/c3ccccc3F)CC2)o1`, the activation was inactive: -19%.

As to `COc1ccc(S(=O)(=O)N(C(=O)c2ccncc2)c2ccc3oc(C)c(C(C)=O)c3c2)cc1`, the activation is inactive: 12.1%.

Turning to `Cc1ccc(C)c(NC(=O)C(NS(=O)(=O)c2ccc3c(c2)CCC(=O)N3)c2ccccc2)c1` (centres undefined), the activation is inactive: 7.35%.

Take `CC[C@H](C)NC(=O)CCCc1nnc2n(CCC(C)C)c(=O)c3sccc3n12`: the activation is inactive: -4.58%.

For `COc1ccccc1OC(C)C(=O)N1CCN(CCc2ccccn2)CC1` (centres undefined), the activation is inactive: -1.53%.

Regarding `Cc1ccc(-n2c(=O)c3cccnc3n2CC(=O)Nc2ccccc2C(F)(F)F)cc1C`, the activation was inactive: -16.8%.

Regarding `COc1cccc(CNC(=O)C2CCCN(S(=O)(=O)c3cn(C)cn3)C2)c1` (centres undefined), the activation was inactive: -11.4%.

On to `CCC(C)n1c(=N)c(C(=O)NC2CCCCC2)cc2c(=O)n3cc(C)ccc3nc21` (centres undefined), for which the activation is inactive: 5.51%.

Take `CCOC(=O)C1CCCN(C(=O)Cn2nc(C)n3c(cc4c(OC)cccc43)c2=O)C1` (centres undefined): the activation was inactive: -14.3%.

For `COc1ccccc1N1CCN(Cc2cc(COC(C)C)c3cccnc3c2O)CC1`, the activation was inactive: -5.87%.

Regarding `CC(C)c1ccc(CNCCSc2nnnn2C)cc1`, the activation is inactive: -2.64%.

As to `Cc1ccc(NC(=O)CSc2nc3c(c(=O)[nH]2)CN(Cc2ccc4c(c2)OCO4)CC3)cc1C`, the activation is inactive: 27.7%.

As to `Cn1c(=O)c2c(SCC(=O)NCc3ccco3)nc(-c3ccccc3Cl)nc2n(C)c1=O`, the activation was inactive: -2.03%.

As for `CCOC(=O)c1ccc(NC(=O)c2oc3ccc4c(c3c2C)C(=O)CC(C)(CC)O4)cc1` (centres undefined), the activation is inactive: -2.31%.

On to `CCOC(=O)C1CCCN(c2ncnc3c2cnn3-c2ccc(C)c(Cl)c2)C1` (centres undefined), for which the activation was inactive: -8.29%.

As to `Cc1nnc(NC(=O)c2nc(S(=O)(=O)Cc3ccccc3)ncc2Cl)s1`, the activation was active: 81%.

For the compound `CCOc1ccc(NC(=O)C(C)Sc2nnc3cc(C)c4ccccc4n23)cc1` (centres undefined), the activation is inactive: 1.99%.

With `CC(=O)Nc1c(C)nn(-c2ccccc2)c1N1CCC(C(=O)Nc2cc(Cl)ccc2C)CC1`, the activation was inactive: -8.79%.

Turning to `CCc1ccccc1NC(=O)c1cc(S(=O)(=O)NCCc2ccc(OC)c(OC)c2)ccc1F`, the activation was inactive: -12%.

As for `CCCOc1ccc(C2c3c(-c4ccccc4O)n[nH]c3C(=O)N2Cc2ccncc2)cc1OCC` (centres undefined), the activation is inactive: -14.1%.

For the compound `Cc1cccc(NC(=O)C(=O)NCC(c2cccnc2)N2CCOCC2)c1` (centres undefined), the activation was inactive: 11.1%.

Consider `O=C(O)[C@@H]1CSCN1`, for which the activation was inactive: 3.43%.

For the compound `C=C[C@@]1(C)CC(=O)[C@]2(O)[C@@]3(C)[C@@H](O)CCC(C)(C)[C@@H]3[C@H](O)[C@H](OC(C)=O)[C@@]2(C)O1`, the activation is inactive: 6.82%.

Turning to `COc1ccc(C)cc1NC(=O)C(=O)NCCc1csc(-c2ccc(C)cc2)n1`, the activation was inactive: -8.4%.

Regarding `Cc1ccc(CCNC(=O)C2CCCN(Cc3nc(-c4cccc(Cl)c4)oc3C)C2)cc1` (centres undefined), the activation was inactive: -5.87%.

Take `CCOC(=O)c1c(C)c(C(=O)NCCc2ccc(OC)cc2)c(C)n1C`: the activation was inactive: 6.15%.

For the compound `CCc1nn(CC(=O)Nc2cccc(C)c2C)c(=O)c2cc3sccc3n12`, the activation was inactive: -16.3%.

In the case of `Cc1cccc(CNC(=O)c2cnc3sc(N4CCCCC4)nn3c2=O)c1`, the activation was inactive: 1.02%.

With `CN(C(=O)CSc1cn(CC(=O)N2CCCCC2)c2ccccc12)c1ccccc1`, the activation was inactive: 12.1%.

`O=C(Cc1ccc(F)cc1)N1CCC(c2nc3c(nnn3Cc3ccc(Cl)cc3)c(=O)[nH]2)CC1`: the activation is inactive: -10.2%.

On to `COc1ccc(/C=C/c2nc(C#N)c(N3CCN(c4ccccc4)CC3)o2)cc1OC`, for which the activation was inactive: -10.4%.

As for `COc1ccc(-c2noc(C3CC(=O)N(c4cc(C)cc(C)c4)C3)n2)cc1` (centres undefined), the activation was inactive: -9.24%.

On to `CCC(Oc1ccccc1)C(=O)Nc1ccccc1OCc1cc(=O)n2ccccc2n1` (centres undefined), for which the activation was inactive: -9.85%.

With `CN1CCN(CCCNC(=O)c2cnn(-c3ccccc3)c2C2CCN(C(=O)OC(C)(C)C)CC2)CC1`, the activation is inactive: -0.177%.

`CCC(C)NC(=O)c1ccc2c(c1)N(Cc1ccccc1)C(=O)c1ccccc1S2(=O)=O` (centres undefined): the activation was inactive: -78.7%.

`Cc1ccc2nc(-c3ccccn3)c(Nc3ccc(F)cc3)n2c1`: the activation was inactive: -92.8%.

As to `CC1=C(C(=O)Nc2ccc(Cl)cc2)C(C(C)C)n2nc(SCc3cccc(C)c3)nc2N1` (centres undefined), the activation was inactive: 21.2%.

Take `NC(=O)c1cc(S(=O)(=O)NCc2ccccc2)cs1`: the activation was inactive: -9.8%.

Turning to `COc1cccc(-c2nc3c(c(SCc4ccccc4)n2)Cc2c(CO)cnc(C)c2O3)c1`, the activation was inactive: 31.4%.

`CCOc1ccc(CCNC(=O)CN2CCN(Cc3ccc(F)cc3Cl)C2=O)cc1OCC`: the activation is active: 75.4%.

Regarding `C=CCc1c(C)nc2nc(SCC(=O)Nc3ccccc3CC)nn2c1C`, the activation was inactive: -12.1%.

`CN(C(=O)CCNC(=O)Cn1cnc2ccccc2c1=O)c1ccccc1F`: the activation was inactive: 5.38%.

As for `CCCn1c(=O)n(-c2ccccc2)c(=O)c2sc3ccccc3c21`, the activation was inactive: -4.9%.

Consider `COC(=O)CN1C(=O)CSc2ccc(S(=O)(=O)Nc3ccc(Cl)cc3C)cc21`, for which the activation was inactive: -7.72%.

`CCOC(=O)CSc1nc2cc3c(cc2c(=O)n1CCCC(=O)NCc1ccc2c(c1)OCO2)OCO3`: the activation was inactive: -16.4%.

In the case of `C=Cc1ccc(CSc2nc(-c3ccc(OC)cc3)nc3c2Cc2c(CO)cnc(C)c2O3)cc1`, the activation was inactive: 19.5%.

Take `CC(C)Cc1nn2c(=O)cc(COC(=O)c3cccc(NC(=O)CCc4ccccc4)c3)nc2s1`: the activation is inactive: -10.5%.

Take `Clc1ccc(CCNc2ncnc3c2c(-c2ccccc2)cn3-c2ccccc2)cc1`: the activation is inactive: -38.8%.

As to `COc1ccc(C(=O)CN2C(=O)N(c3cc(C)cc(C)c3)S(=O)(=O)c3ccccc32)cc1`, the activation was inactive: -32.2%.

As to `CCN(CC)C(=S)SSC(=S)N(CC)CC`, the activation was active: 92.5% and inactive: -46.1%.

As for `COc1ccccc1C(=O)Nc1nc2ccc(S(=O)(=O)N3CCCC3)cc2s1`, the activation is inactive: -21.7%.

Turning to `NCCc1nnc(SCc2ccc(Cl)cc2)o1`, the activation was inactive: -17.5%.

Take `COc1ccccc1CNC(=O)Cn1ncc2c(=O)oc3ccc(C)cc3c21`: the activation was inactive: 0.341%.

As for `CCCCC(=O)Nc1cccc(OCc2cc(=O)n3ccccc3n2)c1`, the activation was inactive: 1.71%.

Consider `COc1cc(C(=O)Nc2cc(C)ccc2OCc2cc(=O)n3cc(C)sc3n2)cc(OC)c1OC`, for which the activation is inactive: 0.112%.

As to `Cc1ccccc1CS(=O)(=O)Cc1ccc(C(=O)NCCc2ccccc2)o1`, the activation is inactive: -4.47%.

For `CCOC(=O)c1ccc(Nc2c(-c3ccc(O)cc3)nc3nc[nH]n23)cc1`, the activation is inactive: -21%.

With `COc1ccc(N(C)C(=O)NCc2noc3ccc(C)cc23)c(OC)c1`, the activation is inactive: -12.3%.

As to `CCCNC(=O)Nc1cc(C(=O)NCc2cccc(OCC)c2)ccc1N1CCCC1`, the activation is inactive: -23.8%.

As for `CC(=O)SC1CC2=CC(=O)CC[C@]2(C)C2CC[C@@]3(C)C(CC[C@@]34CCC(=O)O4)C12` (some centres undefined), the activation was inactive: -15.6%.

As for `Cc1cc(C)c2c(=O)cc(CSCC(=O)Nc3nnc(C)s3)[nH]c2c1`, the activation was inactive: -1.14%.

As to `Cc1cccc(NC(=O)C2CCCN(S(=O)(=O)c3c(C)noc3/C=C/N(C)C)C2)c1C` (centres undefined), the activation was inactive: -22.6%.

In the case of `CCC(Sc1nncn2c1cc1sccc12)C(=O)Nc1cccc(OC)c1` (centres undefined), the activation is inactive: -22.8%.

In the case of `CC(C)(C)C1CCc2nc(NC(=O)Cc3ccc(Cl)cc3)sc2C1` (centres undefined), the activation is inactive: -35.4%.

Take `COc1ccccc1NC(=O)CSCc1cc(=O)c2c(C)cc(C)cc2[nH]1`: the activation was inactive: -11.9%.

Regarding `COc1ccc(C(=O)CCC(=O)Nc2ccccc2C)cc1`, the activation was inactive: -8.4%.

As to `C/C(=C(\CCOP(=O)(O)O)SC(=O)c1ccccc1)N(C=O)Cc1cnc(C)nc1N`, the activation is inactive: -11.2%.

Take `Cc1ccc(CN2CCN(C3CCN(C(=O)OC(C)(C)C)CC3)C(=O)C2=O)cc1`: the activation was inactive: -9.32%.

On to `CC(C)(C)c1ccc(C(=O)Nc2ccccc2C(=O)OCc2cc(=O)n3ccsc3n2)cc1`, for which the activation is inactive: -1.62%.

As for `CCC(=O)N1CCc2cc(Br)cc(S(=O)(=O)CCC(=O)Nc3ccccc3C)c21`, the activation was inactive: -3.18%.
